# Laboratory results from publication PMC11237553, “De novo synthetic antimicrobial peptide design with a recurrent neural network” (Protein Science : A Publication of the Protein Society, 2024).
# Experiments:
# [1] = test system: Escherichia coli ATCC 25922; assay: Broth microdilution antimicrobial susceptibility testing (MIC/MBC); assay type: cell-based; settings: one maximum and one minimum data point dropped; for MIC, E. coli ATCC 25922: broth microdilution (CLSI, adapted for cationic AMPs), Mueller‐Hinton Broth, 5 ± 3 × 10^5 CFU/mL, 20–24 h at 37°C, test range 128 down to 0.25 μg/mL, lowest effective concentration range in three independent experiments in duplicate; for MBC, E. coli ATCC 25922: concentration killing 99.9% of the inoculum, plated from MIC wells, 24 h at 37°C, range in three independent experiments in duplicate
# Description: (§1) Bacteria from frozen stocks were streaked onto non‐selective Columbia blood agar with 5% sheep blood (Oxoid) and incubated for 18–24 h at 37°C. The following day, 2–4 colonies were streaked onto a new agar plate and incubated for 18–24 h at 37°C to ensure uniform colony health prior to the assay. A standardized bacterial inoculum was prepared by suspending isolated colonies in Mueller‐Hinton Broth (MHB; Sigma‐Aldrich, St. Louis, MO, USA). The suspension was adjusted to an optical density of 0.08–0.1 at 600 nm, equivalent to a 0.5 McFarland standard of approximately 1–2 × 10^8 CFU/mL (CFU: colony forming units). The inoculum was then diluted 1:250 to achieve a final concentration of 5 ± 3 × 10^5 CFU/mL. The target bacterial density was confirmed by examining the total viability counts from the final inoculum.
# (§2) Candidate AMPs were purchased from and synthesized by GenScript (Piscataway, NJ, USA). These were received in lyophilized format and stored at −20°C, and were suspended in sterile ultrapure water prior to testing.
# [2] = test system: Staphylococcus aureus ATCC 29213; assay: as above; assay type: cell-based; settings: one maximum and one minimum data point dropped; for MIC, S. aureus ATCC 29213: broth microdilution (CLSI, adapted for cationic AMPs), Mueller‐Hinton Broth, 5 ± 3 × 10^5 CFU/mL, 20–24 h at 37°C, test range 128 down to 0.25 μg/mL, lowest effective concentration range in three independent experiments in duplicate; for MBC, S. aureus ATCC 29213: concentration killing 99.9% of the inoculum, plated from MIC wells, 24 h at 37°C, range in three independent experiments in duplicate
# Description: as §1, §2
# [3] = test system: Porcine red blood cells (RBCs); assay: Hemolysis assay; assay type: cell-based, pig; settings: 1% porcine RBC in RPMI, 37°C for 30–45 min, absorbance 415 nm, test range 128 down to 1 μg/mL, Triton‐X100 = 100%; range in three independent experiments in duplicate, one maximum and one minimum data point dropped
SMILES,"MIC, E. coli ATCC 25922 [1] [µg/mL]","MBC, E. coli ATCC 25922 [1] [µg/mL]","MIC, S. aureus ATCC 29213 [2] [µg/mL]","MBC, S. aureus ATCC 29213 [2] [µg/mL]","HC50 (concentration that lyses 50% of the RBCs), porcine RBCs [3] [µg/mL]"
CC[C@H](C)[C@H](NC(=O)[C@H](CCCCN)NC(=O)[C@@H]1CCCN1C(=O)[C@H](CC(C)C)NC(=O)[C@H](Cc1ccccc1)NC(=O)[C@H](CCCCN)NC(=O)[C@H](C)NC(=O)[C@H](C)NC(=O)[C@H](CC(C)C)NC(=O)CNC(=O)[C@H](C)NC(=O)[C@@H](NC(=O)[C@@H](NC(=O)[C@@H]1CCCN1C(=O)[C@H](CC(C)C)NC(=O)[C@@H](N)Cc1ccccc1)[C@@H](C)CC)[C@@H](C)CC)C(=O)N[C@@H](Cc1ccccc1)C(=O)N[C@@H](CS)C(=O)N[C@@H](CCCCN)C(=O)N[C@H](C(=O)N[C@H](C(=O)N[C@@H](CCCCN)C(=O)N[C@@H](CCCCN)C(=O)N[C@@H](CS)C(=O)O)[C@@H](C)O)[C@@H](C)CC [DeNo1016],4,4,2 to 4,2 to 8,4 to 8
CC[C@H](C)[C@H](NC(=O)[C@H](CCCCN)NC(=O)[C@H](CS)NC(=O)[C@H](Cc1ccccc1)NC(=O)[C@H](CC(C)C)NC(=O)[C@H](CCCCN)NC(=O)[C@@H]1CCCN1C(=O)[C@H](CC(C)C)NC(=O)[C@H](CC(C)C)NC(=O)[C@H](CCCCN)NC(=O)[C@H](C)NC(=O)[C@H](C)NC(=O)[C@H](CC(C)C)NC(=O)CNC(=O)[C@H](C)NC(=O)[C@@H](NC(=O)[C@@H](NC(=O)[C@@H]1CCCN1C(=O)[C@H](CC(C)C)NC(=O)[C@@H](N)Cc1ccccc1)[C@@H](C)CC)[C@@H](C)CC)C(=O)N[C@H](C(=O)N[C@@H](CCCCN)C(=O)N[C@@H](CCCCN)C(=O)N[C@@H](CS)C(=O)O)[C@@H](C)O [DeNo1017],4,4,2 to 4,2 to 4,16
CC[C@H](C)[C@H](NC(=O)[C@H](CCCCN)NC(=O)CNC(=O)[C@H](C)NC(=O)[C@@H](NC(=O)[C@H](CCCCN)NC(=O)[C@@H]1CCCN1C(=O)[C@H](CC(C)C)NC(=O)[C@@H](N)Cc1c[nH]c2ccccc12)[C@@H](C)CC)C(=O)N[C@@H](C)C(=O)NCC(=O)N[C@@H](CCCCN)C(=O)N[C@@H](CC(C)C)C(=O)N[C@@H](CC(C)C)C(=O)N[C@@H](CCCCN)C(=O)N[C@@H](CCCCN)C(=O)N[C@@H](CC(C)C)C(=O)N[C@@H](CC(C)C)C(=O)N[C@@H](CCCCN)C(=O)N[C@@H](CCCCN)C(=O)N[C@H](C(=O)N[C@@H](CCCCN)C(=O)N[C@@H](CCCCN)C(=O)N[C@@H](CCCCN)C(=O)O)[C@@H](C)CC [DeNo1018],,,,,128
CC[C@H](C)[C@H](NC(=O)[C@H](CCCCN)NC(=O)[C@H](CCCCN)NC(=O)[C@H](CC(C)C)NC(=O)[C@@H](NC(=O)[C@H](CCCCN)NC(=O)[C@H](CCCCN)NC(=O)[C@H](CC(C)C)NC(=O)[C@H](CCCCN)NC(=O)[C@H](CCCCN)NC(=O)[C@H](CC(C)C)NC(=O)[C@H](CC(C)C)NC(=O)[C@H](CCCCN)NC(=O)CNC(=O)[C@H](Cc1ccccc1)NC(=O)[C@H](CC(C)C)NC(=O)[C@@H](N)CCCCN)[C@@H](C)CC)C(=O)N[C@@H](C)C(=O)N[C@@H](CCCCN)C(=O)N[C@@H](CCCCN)C(=O)N[C@H](C(=O)N[C@@H](CCCCN)C(=O)N[C@@H](CCCCN)C(=O)N[C@@H](CCCCN)C(=O)N[C@@H](CC(C)C)C(=O)O)[C@@H](C)CC [DeNo1021],,,,,> 128
CC[C@H](C)[C@H](NC(=O)[C@H](CCCCN)NC(=O)[C@H](CCCCN)NC(=O)CNC(=O)[C@@H](NC(=O)[C@H](CCCCN)NC(=O)[C@H](CCCCN)NC(=O)[C@H](CC(C)C)NC(=O)[C@H](CC(C)C)NC(=O)[C@H](CO)NC(=O)[C@H](CC(C)C)NC(=O)[C@H](CC(C)C)NC(=O)CN)[C@@H](C)CC)C(=O)NCC(=O)N[C@@H](CCCCN)C(=O)N[C@@H](CC(C)C)C(=O)N[C@@H](CC(C)C)C(=O)O [DeNo1022],,,,,≥ 128
CC[C@H](C)[C@H](NC(=O)[C@H](CCCCN)NC(=O)CNC(=O)[C@@H](NC(=O)[C@@H](NC(=O)[C@H](CCCCN)NC(=O)[C@H](C)NC(=O)[C@@H](NC(=O)[C@H](CCCCN)NC(=O)[C@H](CCCCN)NC(=O)[C@H](Cc1ccccc1)NC(=O)[C@H](CC(C)C)NC(=O)[C@H](CCCCN)NC(=O)[C@H](CCCCN)NC(=O)[C@H](Cc1ccccc1)NC(=O)[C@H](CC(C)C)NC(=O)[C@H](CO)NC(=O)[C@@H]1CCCN1C(=O)[C@H](CC(C)C)NC(=O)[C@@H](N)CCCNC(=N)N)[C@@H](C)CC)C(C)C)C(C)C)C(=O)N[C@@H](C)C(=O)N[C@@H](CCCCN)C(=O)N[C@@H](CCCCN)C(=O)N[C@H](C(=O)N[C@@H](CC(C)C)C(=O)N[C@@H](CCCCN)C(=O)N[C@@H](CCCCN)C(=O)O)[C@@H](C)CC [DeNo1026],,,,,≥ 128
CC[C@H](C)[C@H](NC(=O)CNC(=O)[C@@H]1CCCN1C(=O)[C@@H](NC(=O)[C@@H](NC(=O)[C@@H]1CCCN1C(=O)[C@@H]1CCCN1C(=O)[C@H](CC(C)C)NC(=O)[C@@H]1CCCN1)[C@@H](C)CC)[C@@H](C)CC)C(=O)N[C@@H](C)C(=O)NCC(=O)N[C@@H](CCCCN)C(=O)N[C@@H](CC(C)C)C(=O)N[C@@H](CC(C)C)C(=O)NCC(=O)NCC(=O)N[C@@H](CC(C)C)C(=O)N[C@@H](CC(C)C)C(=O)NCC(=O)N[C@@H](CC(C)C)C(=O)N[C@@H](CC(C)C)C(=O)N[C@@H](CCCCN)C(=O)N[C@@H](CCCCN)C(=O)N[C@@H](CC(C)C)C(=O)O [DeNo1031],,,,,128
CC[C@H](C)[C@H](NC(=O)[C@H](CCCCN)NC(=O)[C@@H]1CCCN1C(=O)[C@H](CC(C)C)NC(=O)[C@@H](N)CCSC)C(=O)N[C@@H](Cc1ccccc1)C(=O)NCC(=O)N[C@@H](CCCCN)C(=O)N[C@H](C(=O)N[C@@H](Cc1ccccc1)C(=O)N[C@@H](CCCCN)C(=O)N[C@@H](CCCCN)C(=O)N[C@H](C(=O)N[C@@H](CC(C)C)C(=O)N[C@@H](CCCCN)C(=O)N[C@@H](CCCCN)C(=O)N[C@H](C(=O)N[C@@H](CC(C)C)C(=O)N[C@@H](CCCCN)C(=O)N[C@@H](CCCCN)C(=O)N[C@H](C(=O)N[C@@H](CC(C)C)C(=O)N[C@@H](CCCCN)C(=O)N[C@@H](CCCCN)C(=O)N[C@H](C(=O)N[C@@H](CC(C)C)C(=O)N[C@@H](CCCCN)C(=O)N[C@@H](CCCCN)C(=O)N[C@@H](CC(C)C)C(=O)N[C@@H](CC(C)C)C(=O)N[C@@H](CCCCN)C(=O)N[C@@H](CCCCN)C(=O)N[C@@H](CC(C)C)C(=O)O)[C@@H](C)CC)[C@@H](C)CC)[C@@H](C)CC)[C@@H](C)CC)[C@@H](C)CC [DeNo1039],> 128,> 128,> 128,> 128,32 to 64
CC[C@H](C)[C@H](NC(=O)[C@H](CO)NC(=O)[C@@H]1CCCN1C(=O)[C@H](CC(C)C)NC(=O)[C@@H](N)CCSC)C(=O)N[C@@H](CC(C)C)C(=O)NCC(=O)N[C@@H](C)C(=O)N[C@@H](CC(C)C)C(=O)N[C@@H](CC(C)C)C(=O)N[C@@H](CCCCN)C(=O)N[C@@H](CC(C)C)C(=O)N[C@@H](CC(C)C)C(=O)O [DeNo1040],,,,,> 128
CC(C)C[C@H](NC(=O)[C@H](CCCCN)NC(=O)[C@H](CCCCN)NC(=O)[C@H](CC(C)C)NC(=O)[C@H](CC(C)C)NC(=O)CNC(=O)[C@H](CCCCN)NC(=O)[C@H](CC(C)C)NC(=O)[C@H](CC(C)C)NC(=O)[C@H](CO)NC(=O)CNC(=O)[C@H](CC(C)C)NC(=O)[C@@H](N)C(C)C)C(=O)O [DeNo1046],,,,,> 128
CC(C)C[C@H](NC(=O)[C@H](CCCCN)NC(=O)[C@H](CCCCN)NC(=O)[C@H](CC(C)C)NC(=O)[C@H](CC(C)C)NC(=O)[C@H](CCCCN)NC(=O)[C@H](CCCCN)NC(=O)[C@H](CC(C)C)NC(=O)[C@H](CC(C)C)NC(=O)[C@H](CO)NC(=O)[C@H](CC(C)C)NC(=O)[C@H](CC(C)C)NC(=O)[C@H](C)N)C(=O)O [DeNo1049],,,,,> 128
CC(C)C[C@H](NC(=O)[C@H](CCCCN)NC(=O)[C@H](CCCCN)NC(=O)[C@H](CC(C)C)NC(=O)[C@H](CC(C)C)NC(=O)[C@H](CCCCN)NC(=O)[C@H](CCCCN)NC(=O)[C@H](CC(C)C)NC(=O)[C@H](CC(C)C)NC(=O)[C@H](CO)NC(=O)[C@@H]1CCCN1C(=O)[C@H](CC(C)C)NC(=O)[C@H](C)N)C(=O)O [DeNo1051],,,,,> 128
CC[C@H](C)[C@H](N)C(=O)N[C@@H](CC(C)C)C(=O)NCC(=O)N[C@@H](CCCCN)C(=O)N[C@@H](CC(C)C)C(=O)N[C@@H](CC(C)C)C(=O)N[C@@H](CCCCN)C(=O)N[C@@H](CCCCN)C(=O)N[C@@H](CC(C)C)C(=O)N[C@@H](CC(C)C)C(=O)N[C@@H](CCCCN)C(=O)N[C@@H](CCCCN)C(=O)N[C@@H](CC(C)C)C(=O)O [DeNo1057],,,,,> 128
